The antibiotic and cytotoxicity screens of Wong et al. (2023)
This is one part of the list.

System: HSkMC (human skeletal muscle cells)
Assay: cytotoxicity call (relative viability < 0.9)
Details: 10 µM

| Compound | cytotoxicity call |
| --- | --- |
| Cc1noc(C)c1NC(=O)Nc1ccc2c(c1)C(=O)N([C@@H](C)CO)C[C@H](C)[C@@H](CN(C)Cc1ccc(Cl)c(Cl)c1)O2 | inactive |
| C[C@@H]1CCCCO[C@@H](CN(C)C(=O)c2ccccc2)[C@H](C)CN([C@H](C)CO)C(=O)c2cc(NC(=O)Nc3ccc(C(F)(F)F)cc3)ccc2O1 | inactive |
| C[C@H]1CN([C@@H](C)CO)C(=O)Cc2cc(NS(=O)(=O)c3ccc(Cl)cc3)ccc2O[C@H]1CN(C)S(=O)(=O)c1cn(C)cn1 | inactive |
| C[C@H](CO)N1C[C@H](C)[C@@H](CN(C)S(=O)(=O)c2ccc(F)cc2)Oc2ccc(N(C)C)cc2CC1=O | inactive |
| C[C@@H]1CCCCO[C@@H](CN(C)Cc2ccc(C(=O)O)cc2)[C@H](C)CN([C@@H](C)CO)C(=O)c2cc(NS(=O)(=O)c3cccs3)ccc2O1 | inactive |
| COc1ccc2nccc(Cl)c2c1 | inactive |
| C[C@H](CO)N1C[C@H](C)[C@@H](CN(C)C(=O)NC2CCCCC2)Oc2ccc(NS(C)(=O)=O)cc2C1=O | inactive |
| I.[KH] | inactive |
| C[C@@H]1CN([C@H](C)CO)C(=O)Cc2cc(NC(=O)Nc3ccccc3)ccc2O[C@@H]1CN(C)Cc1ccc(Oc2ccccc2)cc1 | active |
| C[C@H](CO)N1C[C@H](C)[C@H](CN(C)C(=O)Nc2cccc(Oc3ccccn3)c2)OCc2cn(nn2)CCCC1=O | inactive |
| CCCN(C)C[C@H]1Oc2cc(C#Cc3ccc(OC)cc3)ccc2S(=O)(=O)N([C@H](C)CO)C[C@H]1C | inactive |
| C=CCOC(=O)[C@H]1[C@@H]2C(=O)O[C@@H](c3ccccc3)[C@@H](c3ccccc3)N2[C@@H](c2ccc(OCCOC(=O)[C@@H]3C[C@@H]4C(=O)NCC(=O)N4[C@@H]3c3cccc(OCCO)c3)cc2)[C@]12C(=O)Nc1ccccc12 | inactive |
| CCCn1ncnc1[C@@H](C)N | inactive |
| C[C@@H]1CN([C@H](C)CO)C(=O)c2cccc(NC(=O)Nc3ccc4c(c3)OCO4)c2O[C@H]1CN(C)Cc1ccc(C(F)(F)F)cc1 | inactive |
| COc1ccc2c3c(n(c2c1)C)[C@H](CO)N(Cc1ccccc1)C[C@]13CCN(CC1)C(=O)c1ccccc1F | inactive |
| COCC(=O)Nc1ccc2c(c1)OC[C@@H](C)N(C(=O)c1ccccc1F)C[C@@H](C)[C@H](OC)CN(C)C2=O | inactive |
| C[C@H](CO)N1C[C@H](C)[C@H](CN(C)C(=O)Nc2cccc3ccccc23)Oc2ncc(C#Cc3ccc(F)cc3)cc2C1=O | inactive |
| C[C@H](O)C#Cc1ccc2c(c1)O[C@H](CN(C)C(=O)Cc1ccccn1)[C@H](C)CN([C@H](C)CO)S2(=O)=O | inactive |
| COCC#Cc1cnc2c(c1)C(=O)N([C@@H](C)CO)C[C@H](C)[C@@H](CN(C)S(=O)(=O)c1cccc(OC)c1)O2 | inactive |
| Cc1noc(C)c1S(=O)(=O)Nc1cccc2c1O[C@@H](CN(C)Cc1ccc(-c3ccccc3)cc1)[C@@H](C)CN([C@H](C)CO)C2=O | inactive |
| CN(C)CC(=O)N[C@@H]1C=C[C@H](CC(=O)NCCN2CCCCC2)O[C@H]1CO | inactive |
| O=C(C[C@@H]1C[C@H]2c3cc(NS(=O)(=O)c4ccc(F)cc4)ccc3O[C@H]2[C@H](CO)O1)NCCc1ccccc1 | inactive |
| Cc1noc(C)c1NC(=O)N(C)C[C@@H]1Oc2ccc(NC(=O)NC(C)C)cc2CC(=O)N([C@H](C)CO)C[C@@H]1C | inactive |
| C[C@@H](NC(=O)C[C@@H]1CC[C@@H](NC(=O)CN2CCOCC2)[C@H](CO)O1)c1ccccc1 | inactive |
| COc1ccc(NC(=O)Nc2ccc3c(c2)C(=O)N([C@H](C)CO)C[C@H](C)[C@@H](CN(C)C(=O)Nc2cccc4ccccc24)O3)cc1 | inactive |
| Cc1ccc(S(=O)(=O)N(C)C[C@@H]2Oc3c(NC(=O)Nc4ccc(C(F)(F)F)cc4)cccc3C(=O)N([C@@H](C)CO)C[C@H]2C)cc1 | inactive |
| Cc1ccc(S(=O)(=O)Nc2ccc3c(c2)C(=O)N([C@@H](C)CO)C[C@H](C)[C@H](CN(C)C(=O)Cc2ccccc2)OCCCC[C@@H](C)O3)cc1 | inactive |
| CCOC(=O)N1CCN(C[C@@H](O)Cn2c(=O)c3c(ncn3C)n(C)c2=O)CC1 | inactive |
| C[C@@H]1CN([C@H](C)CO)C(=O)c2cc(NS(C)(=O)=O)ccc2O[C@H]1CN(C)C(=O)NC1CCCCC1 | inactive |
| C[C@@H]1CCCCO[C@@H](CN(C)S(=O)(=O)c2ccc(Cl)cc2)[C@H](C)CN([C@H](C)CO)C(=O)c2cc(NC(=O)c3ccccc3)ccc2O1 | inactive |
